# Measurements from PubChem BioAssay AID2546 (National Center for Advancing Translational Sciences (NCATS), 2010).
# Out of some 310,000 compounds screened, about 11,000 (3.5%) were called active. Inconclusive results, whose numbers are uncertain, are shown with a selection of clear calls. Calls follow the shape of the dose curve; as a rule, active = well fitted inhibition curve with a large enough effect; inconclusive = small, poorly fitted or top-dose-only effect, or effect the other way; inactive = flat fitted curve, though single readings scatter. Potencies of inconclusive entries are left out as doubtful fits.
# Assay: VP16 counterscreen qHTS for inhibitors of ROR gamma transcriptional activity;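 also: Gal4-VP16 expression switched on by copper sulfate through the metallothionein promoter; nearly all actives have a fitted effect of over 50% in size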
# Conditions: Drosophila S2 Gal4-VP16 UAS-luciferase, luminescence, 20 h; activity, negative = inhibition: at 53.6 µM (top of the series)
# % is scaled to controls: 0 for no effect and ±100 for the full control effect; potency is read from the fitted curve at half-maximal effect; tags tell the direction and shape of the fitted curve.
Structure (SMILES),"activity, negative = inhibition",Potency
CC(=O)NNC(=O)c1sc(=S)n2c1[nH]c(=O)c1sccc12,inactive: -29%,
CCCC(=O)OCCNc1cc(SCc2ccco2)c2nonc2c1[N+](=O)[O-],,"inconclusive [inhibitor, single point]"
COc1ccc(NS(=O)(=O)c2ccc(Br)s2)cc1OC,,"inconclusive [inhibitor, single point]"
COc1ccc(S(=O)(=O)N(CC(=O)O)c2ccccn2)cc1,inactive: -24%,
O=C(NNC(=S)NC(=O)c1cccs1)c1ccc(O)cc1,,active: 11.2 µM
CC(C)(C)OC(=O)NCCCC[C@H](NC(=O)c1[nH]cnc1C(=O)Nc1ccccc1)C(=O)OC(C)(C)C,,"inconclusive [inhibitor, single point]"
CCn1cc(CNC(=O)c2ccc3nc(Cc4ccc(OC)cc4)oc3c2)cn1,,"inconclusive [inhibitor, partial curve]"
COc1cc(Br)cc2cc(C(=O)N3CCOCC3)c(=O)oc12,inactive: -3.67%,
COc1ccc(C(=O)NCC2CCCO2)cc1 (configuration not stated),inactive: -5.04%,
Fc1ccc(Nc2nc(-c3ccncc3)nc3ccccc23)cc1,,"inconclusive [activator, single point]"
CCOc1cc(NC(=S)Nc2cccc(C)c2)c(OCC)cc1NC(=O)CC(C)C,,active: 20 µM
C=CCSc1nnc2c(n1)OC(C)=Nc1ccc(Br)cc1-2,inactive: 3.18%,
O=C1NC(=Nc2ccc(O)cc2)S/C1=C\C=C\c1ccco1,,"inconclusive [activator, partial curve]"
c1ccc(-c2noc(CSc3nnnn3C3CCCCC3)n2)cc1,,"inconclusive [inhibitor, single point]"
O=C(Nc1ccc2c(c1)CCC2)c1cc(S(=O)(=O)Nc2ccc(F)cc2)c(Cl)cc1Cl,,active: 6.31 µM
O=C(Cc1ccccc1)c1nc2ccccc2s1,,"inconclusive [inhibitor, single point]"
Cc1ccc(S(=O)(=O)N2CCCC(C(=O)Nc3ccc(NC(=O)c4ccccn4)cc3)C2)cc1 (configuration not stated),inactive: -24.7%,
Cn1cc(CN2CCC(CO)(CCCc3ccccc3)CC2)c(-c2ccccc2)n1,,"inconclusive [inhibitor, partial curve, poor fit]"
COC(=O)CC(=O)CSc1nc(C)cc(C)c1C#N,inactive: 4.01%,
O=C(N/N=C/c1cn(-c2ccccc2)nc1-c1cc2ccccc2o1)c1ccncc1,,active: 4.47 µM
Cc1ccc(OCCNCc2ccccc2)c(C)c1,inactive: 6.87%,
O=C(Nc1nc2c(s1)C(=O)CCC2)c1ccccc1,,"inconclusive [inhibitor, single point]"
